Reference: PubChem BioAssay AID686979 (National Center for Advancing Translational Sciences (NCATS), 2013)
Among all 420,000 compounds or so, about 50,000 (12%) were called active. Inconclusive means that the source gave no clear call. Such entries were picked first, then a sample of the others. Calls follow the shape of the dose curve; as a rule, active = well fitted inhibition curve with a large enough effect; inconclusive = small, poorly fitted or top-dose-only effect; inactive = flat fitted curve, though single readings scatter. No potency is given beside an inconclusive call; the fits are too rough.

assay: qHTS for Inhibitors of human tyrosyl-DNA phosphodiesterase 1 (TDP1): qHTS in cells in presence of CPT; settings: chicken DT40 Tdp1-/-;hTDP1 cells + 20 nM CPT, ATP luminescence, 48 h; activity change, negative = growth inhibition: at 46.2 µM (top of the series); also: nearly all actives have a fitted effect of over 55% in size
Method in brief: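 Chicken DT40 Tdp1-/- cells complemented with human TDP1, 400 cells/well, exposed to compounds plus 20 nM camptothecin for at least 48 h at 37 C; viability read as ATP content by CellTiter-Glo luminescence.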
% is scaled to controls: 0 for no effect and ±100 for the full control effect; potency is read from the fitted curve at half-maximal effect; tags tell the direction and shape of the fitted curve.

SMILES | Potency | activity change, negative = growth inhibition
O=C(Nc1cccc(C(=O)N2CCN(c3ccccc3F)CC2)c1)c1nsc2ccccc12 | inconclusive [inhibitor, single point] | 
CC(C)=CCc1c(O)c(CC=C(C)C)c2c(c1O)C(=O)CC(c1ccc(O)cc1)O2 (stereo not drawn) | inconclusive [inhibitor, single point] | 
CCC(CC)Nc1ccc(C(CC(N)=O)NC(=O)Cc2ccc(Br)cc2)cc1[N+](=O)[O-] (stereo not drawn) | inconclusive [inhibitor, single point] | 
Cc1cc(=O)n(Cc2ccccc2)c2ccccc12 | inconclusive [inhibitor, single point] | 
COCCCNc1ncnc2sc3c(c12)CCC(C)C3 (stereo not drawn) | inconclusive [inhibitor, single point] | 
Cc1ccc(N(Cc2ccccc2)C(=O)c2ccc(Cl)c(S(=O)(=O)N3CCOCC3)c2)cc1 | inconclusive [inhibitor, single point] | 
CCN(c1ccc(OC)cc1)S(=O)(=O)c1nnc(NC(=O)c2ccccc2C)s1 |  | inconclusive: -37.7% [inhibitor]
Cc1ccc(C(=O)C2CCN(CC(=O)Nc3nc(C)cs3)CC2)cc1 | active: 20.6 µM | 
CCC1CCCCN1C(=O)CSc1n[nH]c(-c2ccccc2Cl)n1 (stereo not drawn) | inconclusive [inhibitor, single point] | 
CC1=CN2C(=N)/C(=C/c3ccc(Sc4ccc(C)cc4)o3)C(=O)N=C2S1 | inconclusive [inhibitor, single point] | 
COC(=O)[C@H](Cc1ccccc1)NC(=O)N1CCN(Cc2ccccc2)CC1 | inconclusive [inhibitor, single point] | 
COc1ccc(CNC(=O)C(C)N(C)Cc2cccc(F)c2)cc1 (stereo not drawn) |  | inconclusive: -32.3% [inhibitor]
CCN(CC)CCN(Cc1cc2cc(C)ccc2[nH]c1=O)C(=S)Nc1ccccc1 | inconclusive [inhibitor, single point] | 
C#CC[N+](CC)(CC)CC#Cc1ccccc1 | inconclusive [inhibitor, partial curve] | 
C=C(C)c1ccc(C(C)(C)NC(=O)N2CCN(C)CC2)cc1 | active: 16.4 µM | 
CCCCC1CC2=C(C(=O)OC(C)(C)O2)C(c2cccc3ccccc23)O1 (stereo not drawn) | inconclusive [inhibitor, single point] | 
O=C(Nc1ccc2nc(-c3ccco3)c(-c3ccco3)nc2c1)N1CCCCCC1 | active: 11.6 µM | 
CCN1C(=O)c2ccccc2Sc2ccc(C(=O)NCCCN3CCOCC3)cc21 |  | inactive: 0.744%
